# Laboratory results from the supplement of paper PMC8728848.
# This is one part of the list.
# Assays:
# Assay in all cases: glycan array binding signal (z-score within array); higher = stronger binding
# Conditions in all cases: glycan notation: IUPAC condensed, linker removed
# [1] = target: Neu5Ac(a2-3)Gal(b1-4)GlcNAc(b1-3)GalNAc
# In short: (§1)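 The binding signal is a Z-score computed within each array. Data were drawn from 3228 arrays in the Consortium for Functional Glycomics database, restricted to those with a known protein sequence. Scores were averaged over arrays of the same protein sequence at different concentrations or buffers, and over linkers, and negative values can be taken as non-binding.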
# [2] = target: Neu5Ac(a2-3)Gal(b1-4)GlcNAc(b1-3)[Neu5Ac(a2-3)Gal(b1-4)GlcNAc(b1-6)]GalNAc
# In short: as §1
# [3] = target: Neu5Ac(a2-3)Gal(b1-4)GlcNAc(b1-6)GalNAc
# In short: as §1
# [4] = target: Neu5Ac(a2-3)Gal(b1-4)GlcNAc(b1-6)[Gal(b1-3)]GalNAc
# In short: as §1
# [5] = target: Neu5Ac(a2-3)Gal(b1-4)GlcNAc(b1-6)[Neu5Ac(a2-3)Gal(b1-3)]GalNAc
# In short: as §1
# [6] = target: Neu5Ac(a2-3)Gal(b1-4)GlcNAc6S
# In short: as §1
# [7] = target: Neu5Ac(a2-3)Gal(b1-4)[Fuc(a1-3)]GlcNAc
# In short: as §1
# [8] = target: Neu5Ac(a2-3)Gal(b1-4)[Fuc(a1-3)]GlcNAc(b1-2)Man
# In short: as §1
# [9] = target: Neu5Ac(a2-3)Gal(b1-4)[Fuc(a1-3)]GlcNAc(b1-3)Gal
# In short: as §1
# [10] = target: Neu5Ac(a2-3)Gal(b1-4)[Fuc(a1-3)]GlcNAc(b1-3)Gal(b1-4)GlcNAc
# In short: as §1
# [11] = target: Neu5Ac(a2-3)Gal(b1-4)[Fuc(a1-3)]GlcNAc(b1-3)Gal(b1-4)[Fuc(a1-3)]GlcNAc(b1-3)Gal(b1-4)[Fuc(a1-3)]GlcNAc
# In short: as §1
# [12] = target: Neu5Ac(a2-3)Gal(b1-4)[Fuc(a1-3)]GlcNAc(b1-3)GalNAc
# In short: as §1
# [13] = target: Neu5Ac(a2-3)Gal(b1-4)[Fuc(a1-3)]GlcNAc(b1-6)[Gal(b1-3)]GalNAc
# In short: as §1
# [14] = target: Neu5Ac(a2-3)Gal(b1-4)[Fuc(a1-3)]GlcNAc(b1-6)[Neu5Ac(a2-3)Gal(b1-3)]GalNAc
# In short: as §1
# [15] = target: Neu5Ac(a2-3)Gal(b1-4)[Fuc(a1-3)]GlcNAc6S
# In short: as §1
# [16] = target: Neu5Ac(a2-3)Gal6S(b1-4)GlcNAc
# In short: as §1
# [17] = target: Neu5Ac(a2-3)Gal6S(b1-4)[Fuc(a1-3)]GlcNAc
# In short: as §1
# Neu5Ac(a2-3)GalNAc = target: Neu5Ac(a2-3)GalNAc
# In short: as §1
# [18] = target: Neu5Ac(a2-3)GalNAc(b1-4)GlcNAc
# In short: as §1
# [19] = target: Neu5Ac(a2-3)[GalNAc(b1-4)]Gal(b1-4)Glc
# In short: as §1
# [20] = target: Neu5Ac(a2-3)[GalNAc(b1-4)]Gal(b1-4)GlcNAc
# In short: as §1
# [21] = target: Neu5Ac(a2-3)[GalNAc(b1-4)]Gal(b1-4)GlcNAc(b1-3)GalNAc
# In short: as §1
# [22] = target: Neu5Ac(a2-3)[Neu5Ac(a2-6)]GalNAc
# In short: as §1
# Neu5Ac(a2-6)Gal = target: Neu5Ac(a2-6)Gal
# In short: as §1
# [23] = target: Neu5Ac(a2-6)Gal(b1-3)GlcNAc(b1-3)[Gal(b1-4)GlcNAc(b1-6)]Gal(b1-4)Glc
# In short: as §1
# Neu5Ac(a2-6)Gal(b1-4)Glc = target: Neu5Ac(a2-6)Gal(b1-4)Glc
# In short: as §1
# [24] = target: Neu5Ac(a2-6)Gal(b1-4)GlcNAc
# In short: as §1
# [25] = target: Neu5Ac(a2-6)Gal(b1-4)GlcNAc(b1-2)Man
# In short: as §1
# [26] = target: Neu5Ac(a2-6)Gal(b1-4)GlcNAc(b1-2)Man(a1-3)Man(b1-4)GlcNAc(b1-4)GlcNAc
# In short: as §1
# [27] = target: Neu5Ac(a2-6)Gal(b1-4)GlcNAc(b1-2)Man(a1-3)[Gal(b1-4)GlcNAc(b1-2)Man(a1-6)]Man(b1-4)GlcNAc(b1-4)GlcNAc
# In short: as §1
# [28] = target: Neu5Ac(a2-6)Gal(b1-4)GlcNAc(b1-2)Man(a1-3)[GlcNAc(b1-2)Man(a1-6)]Man(b1-4)GlcNAc(b1-4)GlcNAc
# In short: as §1
# [29] = target: Neu5Ac(a2-6)Gal(b1-4)GlcNAc(b1-2)Man(a1-3)[GlcNAc(b1-4)][Neu5Ac(a2-6)Gal(b1-4)GlcNAc(b1-2)Man(a1-6)]Man(b1-4)GlcNAc(b1-4)GlcNAc
# In short: as §1
# [30] = target: Neu5Ac(a2-6)Gal(b1-4)GlcNAc(b1-2)Man(a1-3)[Man(a1-6)]Man(b1-4)GlcNAc(b1-4)GlcNAc
# In short: as §1
# [31] = target: Neu5Ac(a2-6)Gal(b1-4)GlcNAc(b1-2)Man(a1-3)[Neu5Ac(a2-3)Gal(b1-4)GlcNAc(b1-2)Man(a1-6)]Man(b1-4)GlcNAc(b1-4)GlcNAc
# In short: as §1
# [32] = target: Neu5Ac(a2-6)Gal(b1-4)GlcNAc(b1-2)Man(a1-3)[Neu5Ac(a2-6)Gal(b1-4)GlcNAc(b1-2)Man(a1-6)]Man(b1-4)GlcNAc(b1-4)GlcNAc
# In short: as §1
# [33] = target: Neu5Ac(a2-6)Gal(b1-4)GlcNAc(b1-2)Man(a1-3)[Neu5Ac(a2-6)Gal(b1-4)GlcNAc(b1-2)Man(a1-6)]Man(b1-4)GlcNAc(b1-4)[Fuc(a1-6)]GlcNAc
# In short: as §1
# [34] = target: Neu5Ac(a2-6)Gal(b1-4)GlcNAc(b1-2)Man(a1-6)Man(b1-4)GlcNAc(b1-4)GlcNAc
# In short: as §1
# [35] = target: Neu5Ac(a2-6)Gal(b1-4)GlcNAc(b1-2)Man(a1-6)[Gal(b1-4)GlcNAc(b1-2)Man(a1-3)]Man(b1-4)GlcNAc(b1-4)GlcNAc
# In short: as §1
# [36] = target: Neu5Ac(a2-6)Gal(b1-4)GlcNAc(b1-2)Man(a1-6)[GlcNAc(b1-2)Man(a1-3)]Man(b1-4)GlcNAc(b1-4)GlcNAc
# In short: as §1
# [37] = target: Neu5Ac(a2-6)Gal(b1-4)GlcNAc(b1-2)Man(a1-6)[Man(a1-3)]Man(b1-4)GlcNAc(b1-4)GlcNAc
# In short: as §1
# [38] = target: Neu5Ac(a2-6)Gal(b1-4)GlcNAc(b1-2)[Neu5Ac(a2-6)Gal(b1-4)GlcNAc(b1-4)]Man(a1-3)[GlcNAc(b1-4)][Neu5Ac(a2-6)Gal(b1-4)GlcNAc(b1-2)[Neu5Ac(a2-6)Gal(b1-4)GlcNAc(b1-6)]Man(a1-6)]Man(b1-4)GlcNAc(b1-4)GlcNAc
# In short: as §1
# [39] = target: Neu5Ac(a2-6)Gal(b1-4)GlcNAc(b1-2)[Neu5Ac(a2-6)Gal(b1-4)GlcNAc(b1-4)]Man(a1-3)[GlcNAc(b1-4)][Neu5Ac(a2-6)Gal(b1-4)GlcNAc(b1-4)Man(a1-6)]Man(b1-4)GlcNAc(b1-4)GlcNAc
# In short: as §1
# [40] = target: Neu5Ac(a2-6)Gal(b1-4)GlcNAc(b1-2)[Neu5Ac(a2-6)Gal(b1-4)GlcNAc(b1-6)]Man(a1-6)[Neu5Ac(a2-6)Gal(b1-4)GlcNAc(b1-2)Man(a1-3)][GlcNAc(b1-4)]Man(b1-4)GlcNAc(b1-4)GlcNAc
# In short: as §1
# [41] = target: Neu5Ac(a2-6)Gal(b1-4)GlcNAc(b1-3)Gal(b1-3)GlcNAc
# In short: as §1
# [42] = target: Neu5Ac(a2-6)Gal(b1-4)GlcNAc(b1-3)Gal(b1-4)GlcNAc
# In short: as §1
binder,measurement,setting,value
Threefoil (Haloarcula marismortui) (protein) GSSHHHHHHHHHHSSGLVPRGSHMGDGYYKLVARHSGKALDVENASTSDGANVIQYSYSGGDNQQWRLVDLGDGYYKLVARHSGKALDVENASTSDGANVIQYSYSGGDNQQWRLVDLGDGYYKLVARHSGKALDVENASTSDGANVIQYSYSGGDNQQWRLVDL,glycan array binding signal (z-score),[1],-0.109
same,glycan array binding signal (z-score),[2],-0.133
same,glycan array binding signal (z-score),[3],-0.112
same,glycan array binding signal (z-score),[4],-0.213
same,glycan array binding signal (z-score),[5],-0.238
same,glycan array binding signal (z-score),[6],-0.364
same,glycan array binding signal (z-score),[7],-0.227
same,glycan array binding signal (z-score),[8],-0.122
same,glycan array binding signal (z-score),[9],-0.238
same,glycan array binding signal (z-score),[10],-0.117
same,glycan array binding signal (z-score),[11],-0.238
same,glycan array binding signal (z-score),[12],-0.152
same,glycan array binding signal (z-score),[13],-0.28
same,glycan array binding signal (z-score),[14],0.108
same,glycan array binding signal (z-score),[15],-0.366
same,glycan array binding signal (z-score),[16],-0.239
same,glycan array binding signal (z-score),[17],-0.363
same,glycan array binding signal (z-score),Neu5Ac(a2-3)GalNAc,-0.112
same,glycan array binding signal (z-score),[18],-0.219
same,glycan array binding signal (z-score),[19],-0.269
same,glycan array binding signal (z-score),[20],-0.341
same,glycan array binding signal (z-score),[21],-0.228
same,glycan array binding signal (z-score),[22],-0.222
same,glycan array binding signal (z-score),Neu5Ac(a2-6)Gal,-0.217
same,glycan array binding signal (z-score),[23],-0.029
same,glycan array binding signal (z-score),Neu5Ac(a2-6)Gal(b1-4)Glc,-0.224
same,glycan array binding signal (z-score),[24],-0.118
same,glycan array binding signal (z-score),[25],-0.236
same,glycan array binding signal (z-score),[26],-0.167
same,glycan array binding signal (z-score),[27],-0.255
same,glycan array binding signal (z-score),[28],-0.414
same,glycan array binding signal (z-score),[29],-0.272
same,glycan array binding signal (z-score),[30],-0.219
same,glycan array binding signal (z-score),[31],-0.214
same,glycan array binding signal (z-score),[32],-0.137
same,glycan array binding signal (z-score),[33],-0.249
same,glycan array binding signal (z-score),[34],-0.253
same,glycan array binding signal (z-score),[35],-0.306
same,glycan array binding signal (z-score),[36],-0.264
same,glycan array binding signal (z-score),[37],-0.314
same,glycan array binding signal (z-score),[38],-0.086
same,glycan array binding signal (z-score),[39],-0.256
same,glycan array binding signal (z-score),[40],-0.28
same,glycan array binding signal (z-score),[41],-0.223
same,glycan array binding signal (z-score),[42],-0.288
